Reference: the supplement of paper PMC4604168 (melanoma cell lines)
Some of the results follow. Many values rest on one well or one pass, so single values are uncertain.

The compounds below were run on 501Mel (assay: cell count relative to DMSO control; melanoma cells; higher = more viable cells). Details: library dose: standard library concentration; 72 h.
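Also: cells treated in 1,536-well plates, then fixed and DAPI-stained, with nuclei counted from automated high-throughput microscope images.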

| SMILES | cell count |
| --- | --- |
| CN(NC(=O)CC(=O)NN(C)C(=S)c1ccccc1)C(=S)c1ccccc1 + COc1ccc2c(c1)CCC1C2CCC2(C)C(NCCCCCCN3C(=O)C=CC3=O)CCC12 [U73122] (first compound 0.03 µM, partner dose 2 µM) | 110% |
| COc1cc2c(Oc3ccc4[nH]c(C)cc4c3F)ncnc2cc1OCCCN1CCCC1 [cediranib] + Cn1cc(/C=C2\C(=O)Nc3cccnc32)c2ccccc21 [GW441756] (first compound 2 µM, partner dose 2 µM) | 60.3% |
| COc1cc2c(Oc3ccc4[nH]c(C)cc4c3F)ncnc2cc1OCCCN1CCCC1 [cediranib] + COC(=O)c1sccc1S(=O)(=O)Nc1ccc(Nc2ccccc2)cc1OC [GSK0660] (first compound 2 µM, partner dose 5 µM) | 72.3% |
| COc1cc2c(Oc3ccc4[nH]c(C)cc4c3F)ncnc2cc1OCCCN1CCCC1 [cediranib] + COc1ccc2c(c1)CCC1C2CCC2(C)C(NCCCCCCN3C(=O)C=CC3=O)CCC12 [U73122] (first compound 2 µM, partner dose 2 µM) | 87.5% |
| CCc1ccc(CCOc2ccc(CC3SC(=O)NC3=O)cc2)nc1 (stereo unspecified) [pioglitazone] + O=c1cc(-c2cccc3c2Sc2ccccc2S3)oc(N2CCOCC2)c1 [KU55933] (first compound 10 µM, partner dose 5 µM) | 91.4% |
| CN(NC(=O)CC(=O)NN(C)C(=S)c1ccccc1)C(=S)c1ccccc1 + O=C(O)C(=O)Nc1sc2c(c1C(=O)O)CCNC2 [TCS401] (first compound 0.03 µM, partner dose 8.33333 µM) | 9.12% |
